In patent publication US5773413A, “Method of combating mammalian neoplasias, and lytic peptides therefor” (Demeter Biotechnologies, Ltd., priority 1995, dated 1998):
At least one peptide structure holds a part that was inferred or is arguable (an end, a ring closure or a residue). Where a SMILES comes first, the peptide text is derived from it.

How the values were obtained:
[1] = system: MG-63 chemotherapy resistant osteosarcoma; test: MTT ID50 assay; type: cell-based, human; conditions: quadruplicate; values listed as 10 are actually greater than 10
[2] = system: MDA-MB231 hormone insensitive breast tumor; test: MTT ID50 assay; type: cell-based, human; conditions: quadruplicate; values listed as 10 are actually greater than 10
B16F1 mouse melanoma = test: MTT ID50 assay; type: cell-based; conditions: quadruplicate; values listed as 10 are actually greater than 10
[3] = system: T47D hormone sensitive breast tumor; test: MTT ID50 assay; type: cell-based, human; conditions: quadruplicate; values listed as 10 are actually greater than 10
[4] = system: KBATCC nasopharyngeal carcinoma; test: MTT ID50 assay; type: cell-based, human; conditions: quadruplicate; values listed as 10 are actually greater than 10
[5] = system: MG-63, T47D, MDA231, BT474, B16F1, KBATCC; test: MTT ID50 assay, average over the six cell lines; type: cell-based; conditions: average of the six cell lines, values greater than 10 counted as 10.00
[6] = system: BT474 hormone sensitive breast tumor; test: MTT ID50 assay; type: cell-based, human; conditions: quadruplicate; values listed as 10 are actually greater than 10

Row | SMILES | MTT ID50 MG-63 [1] [µM] | MTT ID50 MDA231 [2] [µM] | MTT ID50 B16F1 (B16F1 mouse melanoma) [µM] | MTT ID50 T47D [3] [µM] | MTT ID50 KBATCC [4] [µM] | MTT ID50 Average [5] [µM] | MTT ID50 BT474 [6] [µM]
1 | CC(C)[C@H](NC(=O)[C@H](C)NC(=O)[C@@H](N)Cc1ccccc1)C(=O)N[C@@H](C)C(=O)N[C@H](C(=O)N[C@@H](CCCCN)C(=O)N[C@@H](C)C(=O)N[C@H](C(=O)N[C@@H](CCCCN)C(=O)N[C@@H](CCCCN)C(=O)N[C@@H](C)C(=O)N[C@H](C(=O)N[C@@H](CCCCN)C(=O)N[C@@H](CCCCN)C(=O)N[C@H](C(=O)N[C@@H](CCCCN)C(=O)N[C@@H](CCCCN)C(=O)N[C@@H](C)C(=O)N[C@H](C(=O)N[C@@H](CCCCN)C(=O)N[C@@H](CCCCN)C(=O)N[C@@H](C)C(=O)N[C@H](C(=O)N[C@@H](CCCCN)C(=O)N[C@@H](CCCCN)C(=O)N[C@@H](CCCCN)C(=O)N[C@@H](CCCCN)C(=O)O)C(C)C)C(C)C)C(C)C)C(C)C)C(C)C)C(C)C [Peptide 1] (H-FAVAVKAVKKAVKKVKKAVKKAVKKKK-OH) | > 10.00 | > 10.00 | 5.60 | 2.20 | 5.10 | 7.15 | > 10.00
2 | CC(C)[C@H](NC(=O)[C@H](CCCCN)NC(=O)[C@H](C)NC(=O)[C@H](CCCCN)NC(=O)[C@@H](NC(=O)[C@H](CCCCN)NC(=O)[C@H](C)NC(=O)[C@H](CCCCN)NC(=O)[C@@H](NC(=O)[C@H](CCCCN)NC(=O)[C@H](C)NC(=O)[C@H](CCCCN)NC(=O)[C@@H](NC(=O)[C@H](CCCCN)NC(=O)[C@@H](N)Cc1ccccc1)C(C)C)C(C)C)C(C)C)C(=O)N[C@@H](CCCCN)C(=O)N[C@@H](C)C(=O)N[C@@H](CCCCN)C(=O)N[C@@H](CCCCN)C(=O)N[C@@H](CCCCN)C(=O)N[C@@H](CCCCN)C(=O)O [Peptide 8] (H-FKVKAKVKAKVKAKVKAKKKK-OH) | > 10.00 | > 10.00 | > 10.00 | 8.40 | > 10.00 | 9.73 | > 10.00
3 | CC(C)[C@H](NC(=O)[C@H](CCCCN)NC(=O)[C@H](C)NC(=O)[C@H](CCCCN)NC(=O)[C@@H](NC(=O)[C@H](CCCCN)NC(=O)[C@H](C)NC(=O)[C@H](CCCCN)NC(=O)[C@@H](NC(=O)[C@H](CCCCN)NC(=O)[C@H](C)NC(=O)[C@H](CCCCN)NC(=O)[C@@H](NC(=O)[C@H](CCCCN)NC(=O)[C@H](Cc1ccccc1)NC(=O)[C@H](CCCCN)NC(=O)[C@H](CCCCN)NC(=O)[C@H](CCCCN)NC(=O)[C@@H](N)CCCCN)C(C)C)C(C)C)C(C)C)C(=O)N[C@@H](CCCCN)C(=O)N[C@@H](C)C(=O)O [Peptide 10] (H-KKKKFKVKAKVKAKVKAKVKA-OH) | > 10.00 | > 10.00 | > 10.00 | 2.90 | > 10.00 | 8.82 | > 10.00
4 | CC[C@H](C)[C@H](NC(=O)[C@H](CCCCN)NC(=O)[C@H](CCCNC(=N)N)NC(=O)[C@H](C)NC(=O)[C@H](CC(C)C)NC(=O)[C@H](CCCCN)NC(=O)[C@H](CCCCN)NC(=O)[C@H](CC(C)C)NC(=O)[C@H](CCCNC(=N)N)NC(=O)[C@H](CCCNC(=N)N)NC(=O)CNC(=O)[C@@H](NC(=O)[C@H](CCCNC(=N)N)NC(=O)[C@H](CCCCN)NC(=O)[C@@H](NC(=O)[C@H](C)N)C(C)C)C(C)C)C(=O)N[C@@H](C)C(=O)N[C@@H](CCCNC(=N)N)C(=O)N[C@@H](CC(C)C)C(=O)NCC(=O)N[C@H](C(=O)N[C@@H](C)C(=O)N[C@@H](Cc1ccccc1)C(=O)O)C(C)C [Peptide 14] (H-AVKRVGRRLKKLARKIARLGVAF-OH) | 6.40 | 5.30 | 3.60 | 4.60 | 4.50 | 5.73 | > 10.00
5 | CC[C@H](C)[C@H](NC(=O)[C@H](C)NC(=O)[C@H](CCCNC(=N)N)NC(=O)[C@H](CC(C)C)NC(=O)CNC(=O)[C@@H](NC(=O)[C@H](C)NC(=O)[C@@H](N)Cc1ccccc1)C(C)C)C(=O)N[C@@H](CCCCN)C(=O)N[C@@H](CCCNC(=N)N)C(=O)N[C@@H](C)C(=O)N[C@@H](CC(C)C)C(=O)N[C@@H](CCCCN)C(=O)N[C@@H](CCCCN)C(=O)N[C@@H](CC(C)C)C(=O)N[C@@H](CCCNC(=N)N)C(=O)N[C@@H](CCCNC(=N)N)C(=O)NCC(=O)N[C@H](C(=O)N[C@@H](CCCNC(=N)N)C(=O)N[C@@H](CCCCN)C(=O)N[C@H](C(=O)N[C@@H](C)C(=O)N[C@@H](CCCCN)C(=O)N[C@@H](CCCNC(=N)N)C(=O)N[C@@H](CCCCN)C(=O)N[C@@H](CCCNC(=N)N)C(=O)N[C@@H](CCCCN)C(=O)N[C@@H](CC(=O)O)C(=O)N[C@@H](CC(C)C)C(=O)O)C(C)C)C(C)C [Peptide 15] (H-FAVGLRAIKRALKKLRRGVRKVAKRKRKDL-OH) | 6.10 | > 10.00 | 7.70 | 4.30 | 7.30 | 7.37 | 8.80
6 | CC[C@H](C)[C@H](NC(=O)[C@H](C)NC(=O)[C@H](CCCNC(=N)N)NC(=O)[C@H](CC(C)C)NC(=O)CNC(=O)[C@@H](NC(=O)[C@H](C)NC(=O)[C@@H](N)Cc1ccccc1)C(C)C)C(=O)N[C@@H](CCCCN)C(=O)N[C@@H](CCCNC(=N)N)C(=O)N[C@@H](C)C(=O)N[C@@H](CC(C)C)C(=O)N[C@@H](CCCCN)C(=O)N[C@@H](CCCCN)C(=O)N[C@@H](CC(C)C)C(=O)N[C@@H](CCCNC(=N)N)C(=O)N[C@@H](CCCNC(=N)N)C(=O)NCC(=O)N[C@H](C(=O)N[C@@H](CCCNC(=N)N)C(=O)N[C@@H](CCCCN)C(=O)N[C@H](C(=O)N[C@@H](C)C(=O)O)C(C)C)C(C)C [Peptide 12] (H-FAVGLRAIKRALKKLRRGVRKVA-OH) | > 10.00 | > 10.00 | > 10.00 | > 10.00 | 5.60 | 9.27 | > 10.00
7 | CC(C)[C@H](NC(=O)[C@H](CCCCN)NC(=O)[C@H](C)NC(=O)[C@H](CCCCN)NC(=O)[C@@H](NC(=O)[C@H](CCCCN)NC(=O)[C@H](C)NC(=O)[C@H](CCCCN)NC(=O)[C@@H](NC(=O)[C@H](CCCCN)NC(=O)[C@H](C)NC(=O)[C@H](CCCCN)NC(=O)[C@@H](NC(=O)[C@H](CCCCN)NC(=O)[C@@H](N)Cc1ccccc1)C(C)C)C(C)C)C(C)C)C(=O)N[C@@H](CCCCN)C(=O)N[C@@H](C)C(=O)O [Peptide 9] (H-FKVKAKVKAKVKAKVKA-OH) | > 10.00 | > 10.00 | > 10.00 | 9.30 | > 10.00 | 9.88 | > 10.00
